# The other results are listed elsewhere or left out.
# Test system: HSkMC (human skeletal muscle cells)
# Test: cytotoxicity call (relative viability < 0.9)
# Details: 10 µM
row,Compound,cytotoxicity call
1,C[C@@H]1CCCCO[C@H](CN(C)C(=O)C2CCCCC2)[C@@H](C)CN([C@H](C)CO)C(=O)c2cc(NC(=O)Nc3ccc4c(c3)OCO4)ccc2O1,inactive
2,C[C@H](CO)N1C[C@H](C)[C@@H](CN(C)Cc2ccc(C(=O)Nc3ccccc3N)cc2)Oc2ccc(NC(=O)Nc3ccccc3)cc2CC1=O,inactive
3,CC(C)C#Cc1cnc2c(c1)C(=O)N([C@H](C)CO)C[C@H](C)[C@H](CN(C)C(=O)c1ccc3c(c1)OCO3)O2,inactive
4,CCN(CC)S(=O)(=O)[C@H]1CCS(=O)(=O)C1,inactive
5,CCCNC(=O)COc1cccc([C@@H](CCc2ccc(OC)c(OC)c2)OC(=O)[C@@H]2CCCCN2C(=O)C(=O)C(C)(C)CC)c1,inactive
6,CC(C)NC(=O)Nc1cccc2c1O[C@@H](CN(C)Cc1ccc(-c3ccccc3)cc1)[C@@H](C)CN([C@@H](C)CO)C2=O,inactive
7,C[C@H]1CCCCO[C@@H](CN(C)C(=O)C2CCCCC2)[C@@H](C)CN([C@@H](C)CO)C(=O)c2cc(NC(=O)c3ccncc3)ccc2O1,inactive
8,NNC(=O)c1ccccn1,inactive
9,C[C@@H]1CN([C@H](C)CO)C(=O)c2cc(NC(=O)CCC(F)(F)F)ccc2O[C@@H]1CN(C)Cc1ccc(C(=O)Nc2ccccc2N)cc1,inactive
10,C[C@@H]1CN([C@H](C)CO)C(=O)Cc2cc(NS(=O)(=O)c3ccccc3)ccc2O[C@H]1CN(C)Cc1ccc(C(=O)O)cc1,inactive
11,O=C(C[C@@H]1CC[C@@H]2[C@H](COC[C@@H](O)CN2C(=O)Nc2cccc(F)c2)O1)NCc1ccccc1Cl,inactive
